# Assay results: article PMC4336329 (PLoS ONE, 2015)
# Hit rate of the full screen: of about 310,000 compounds, about 14,000 (4.5%) showed an effect of 50% or more. Effects have a minus sign here. This is one part of the list.
# Molecular target: human ether-à-go-go-related gene (hERG) potassium channel (human, UniProt Q12809)
# Test: primary screen, population patch clamp on CHO cells stably expressing hERG
# 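Also: peak tail current of the secondary pulse compared with the same well before compound.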
# human ether-à-go-go-related gene (hERG) potassium channel, sequence (Q12809 whole entry, looked up): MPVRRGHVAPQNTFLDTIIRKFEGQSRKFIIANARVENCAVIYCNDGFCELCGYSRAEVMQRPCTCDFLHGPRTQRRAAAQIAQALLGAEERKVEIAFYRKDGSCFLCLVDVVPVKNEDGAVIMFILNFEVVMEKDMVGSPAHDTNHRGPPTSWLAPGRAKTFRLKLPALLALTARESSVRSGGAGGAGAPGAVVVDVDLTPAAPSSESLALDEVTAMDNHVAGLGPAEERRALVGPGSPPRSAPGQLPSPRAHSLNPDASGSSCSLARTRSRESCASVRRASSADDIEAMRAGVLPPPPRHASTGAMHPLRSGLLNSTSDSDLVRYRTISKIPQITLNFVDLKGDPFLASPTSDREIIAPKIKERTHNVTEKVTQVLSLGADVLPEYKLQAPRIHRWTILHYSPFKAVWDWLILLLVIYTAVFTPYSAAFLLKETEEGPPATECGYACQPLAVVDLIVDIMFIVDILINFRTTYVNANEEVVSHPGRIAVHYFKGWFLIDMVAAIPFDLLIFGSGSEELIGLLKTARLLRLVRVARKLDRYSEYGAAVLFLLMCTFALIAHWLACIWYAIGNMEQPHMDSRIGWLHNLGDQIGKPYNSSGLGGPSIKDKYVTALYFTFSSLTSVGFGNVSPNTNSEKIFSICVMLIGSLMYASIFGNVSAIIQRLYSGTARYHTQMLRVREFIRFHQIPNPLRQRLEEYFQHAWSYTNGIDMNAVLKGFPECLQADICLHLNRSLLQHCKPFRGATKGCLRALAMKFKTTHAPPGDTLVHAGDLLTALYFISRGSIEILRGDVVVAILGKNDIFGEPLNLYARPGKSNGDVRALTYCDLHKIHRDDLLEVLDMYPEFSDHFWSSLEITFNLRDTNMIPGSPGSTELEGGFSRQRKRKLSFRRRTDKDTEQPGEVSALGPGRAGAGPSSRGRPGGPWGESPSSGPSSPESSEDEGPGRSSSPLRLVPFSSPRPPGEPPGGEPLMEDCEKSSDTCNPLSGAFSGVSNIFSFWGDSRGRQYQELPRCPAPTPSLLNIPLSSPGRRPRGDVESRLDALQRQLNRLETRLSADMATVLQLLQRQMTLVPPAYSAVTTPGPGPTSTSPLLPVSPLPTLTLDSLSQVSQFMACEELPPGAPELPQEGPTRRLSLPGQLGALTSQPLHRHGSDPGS
row,SMILES,"hERG current change (%, negative = inhibition) at 10uM [%]"
1,O=C(Nc1ccccc1F)NC1CCCCCCC1,1.46
2,COc1ccccc1C(=O)Nc1nc(-c2ccc3c(c2)OCCO3)cs1,7.44
3,COc1cc(NC(=O)C2CCCN(S(=O)(=O)c3cnc[nH]3)C2)cc(OC)c1 (centres unmarked),10.8
4,Cc1cc(C)n(C(=O)c2ccc([N+](=O)[O-])cc2N)n1,19.8
5,CCOC(=O)c1ccc(NC(=O)Cn2ncc(Cl)c(Cl)c2=O)cc1,-32.2
6,CCOC(=O)c1cnc2ccc(C(=O)OC)cc2c1NCCCN1CCOCC1,-60.5
7,O=C(CN1C(=O)NC2(CCc3ccccc32)C1=O)c1ccc(Br)cc1 (centres unmarked),-16.5
8,O=C(CN1C(=O)/C(=C2\SC(=S)N(C3CCS(=O)(=O)C3)C2=O)c2ccccc21)Nc1ccccc1 (centres unmarked),3.47
9,Cc1cccc(C)c1NC(=O)CN(C)C(C)C(=O)Nc1ccccc1-c1ccccc1 (centres unmarked),-3.77
10,CCn1c(SCC(=O)NCC2CCCO2)nnc1-c1ccccc1 (centres unmarked),-12.1
11,Cc1ccccc1N1CC(C(=O)Nc2ccc(S(=O)(=O)N3CCCCC3)cc2)CC1=O (centres unmarked),6.45
12,CN1CCN(C(=O)c2cc3sccc3n2CC(=O)c2ccccc2)CC1,-27.6
13,Cc1cc(C(=O)NNC(=O)C2CCCC2)c(C)o1,25
14,CC(=O)Nc1ccc(S(=O)(=O)NCc2cn3ccsc3n2)cc1,-0.617
15,CC(NC(=O)COC(=O)/C=C/c1ccc2c(c1)OCO2)c1ccccc1 (centres unmarked),-12.4
16,COc1cccc2c1CCc1c-2nc2ccccc2c1C(=O)O,17.2
17,CC(C)c1ccc(N(C(=O)c2ccco2)C(C(=O)NC2CCCC2)c2cccnc2)cc1 (centres unmarked),-25.3
18,O=C1C=C(c2ccc(CO)cc2)C[C@@H](c2ccc3c(c2)OCO3)C1,-44.3
19,CCOC(=O)c1c(NC(=O)CSc2nnc3c(Cl)cc(Cl)cn23)sc2c1CCC2,-19.2

row,SMILES,"hERG current change (%, negative = inhibition) at 10uM [%]"
1,Cc1ccc(NC(=O)c2ccc(OC(F)F)cc2)cc1S(=O)(=O)N(C)C,-10.4
2,CCCCCCc1c(C)c2ccc(OCC(=O)N[C@@H](Cc3ccccc3)C(=O)O)cc2oc1=O,8.79
3,O=C(CSCc1c(Cl)cccc1Cl)Nc1ccccc1C(=O)N1CCOCC1,-7.68
4,CCCc1cc(=O)[nH]c(SCC(=O)NC(=O)OCC)n1,3.48
5,CC1=C(C(=O)Nc2ccccc2)C(c2ccncc2)n2nnnc2N1 (centres unmarked),-4.41
6,CSc1ccc(S(=O)(=O)N(CC(=O)NN=C2CCN(C)CC2)c2ccc(C)cc2)cc1,-21.3
7,COc1ccccc1NC(=S)NNC(=S)Nc1ccc(OC(F)F)cc1,25.8
8,O=C(COc1cccc(C(F)(F)F)c1)N1CCN(c2ccccc2O)CC1,-10.3
9,COc1ccc(/C=N/NC(=O)C(=O)NCC2CCCO2)cc1 (centres unmarked),-20.4
10,Nc1c(-c2ccccc2)c(CN2CCOCC2)nn1-c1ccccc1,-2.19
11,Cc1ccc(NS(=O)(=O)c2cc3[nH]c(=O)c(=O)[nH]c3cc2C)c(C)c1,-0.443
12,CCOC(=O)N1CCN(C(=O)C2CCN(C(=O)c3cc4sccc4n3CC)CC2)CC1,-28.8
13,Cc1cc(C(=O)Cn2ncc(Cl)c(Cl)c2=O)c(C)n1CC(F)(F)F,7.13
14,Cc1c(C)c2c(OCC(=O)N3CCC(C(=O)NCC(C)C)CC3)cc3c(c2oc1=O)CCC(C)(C)O3,-45.2
15,CCOC(=O)N1CCC(c2cc(=O)n3[nH]c(-c4ccccc4)cc3n2)CC1,16.5
16,S=C(NCCCN1CCOCC1)NC1CC1,9.22
17,COc1ccc2c(c1)CCc1c(C(=O)NC3CCCCC3)noc1-2,22.9
18,COc1ccc(C(CNC(=O)Cc2ccc(Cl)c(Cl)c2)N(C)C)cc1 (centres unmarked),-27.1
19,Cc1nn(-c2ccccc2)c2c1C(c1c(C)[nH]c(C#N)c1C)C(C#N)=C(N)O2 (centres unmarked),1.77

row,SMILES,"hERG current change (%, negative = inhibition) at 10uM [%]"
1,CCOC(=O)c1cc(-c2ccccc2)sc1NC(=O)COC(=O)c1cccc(S(N)(=O)=O)c1,10.2
2,CCc1cccc2c(C(=O)COC(=O)c3cnc(C)cn3)c[nH]c12,2.87
3,CCOC(=O)CC(N)c1ccc2c(c1)OCO2.Cl (centres unmarked),7.08
4,CC(CCc1ccccc1)NC(=O)COC(=O)c1ccc(F)cc1.CN(C)C=O (centres unmarked),15.8
5,CCN(CC)c1ccc(C=Nc2ccc(C)cc2)c(O)c1,13.6
6,CC(C)NS(=O)(=O)c1ccc(OCC(=O)Nc2ccc3c(c2)OCO3)c(Cl)c1,-1.68
7,Cc1cccc(-n2c(C)n[nH]c2=S)c1,6.43
8,N#CN1CCC(NS(=O)(=O)c2ccc(C(F)(F)F)cc2)C1 (centres unmarked),-5.56
9,O=c1[nH]c(/C=C\c2ccc(O)cc2)nc(O)c1[N+](=O)[O-],6.29
10,CC(O)C(NS(=O)(=O)c1ccc(Cl)cc1)C(=O)OCC(=O)Nc1cccnc1Cl (centres unmarked),11.2
11,COc1ccc(NS(=O)(=O)c2c(F)cc(F)c(Cl)c2F)cc1S(=O)(=O)N1CCCCC1,-12.1
12,CCOC(=O)/C(C#N)=N\Nc1ccc(S(=O)(=O)Nc2nc(C)cc(C)n2)cc1,9.21
13,CCOc1ccccc1C1CC(=O)NC(SCC)=C1C#N (centres unmarked),2.15
14,COc1ccc(NC(=O)c2sccc2C)cn1,3.9
15,Nc1nc(C(F)(F)F)cc(=O)[nH]1,11
16,O=c1[nH]ncc2c3ccccc3n(Cc3cccc(Cl)c3)c12,24.3
17,O=C(O)C1CC(O)CN1S(=O)(=O)c1ccc2ccccc2c1 (centres unmarked),2.25
18,Cc1ccc(C(=O)N2CCN(Cc3ccc4c(c3)OCO4)CC2)cc1[N+](=O)[O-],-22.7
